In the supplement of paper PMC8728848:
Some of the results follow.

Assays:
Assay in all cases: glycan array binding signal (z-score within array); higher = stronger binding
Settings in all cases: glycan notation: IUPAC condensed, linker removed
[1] = target: Glc(a1-4)Glc(a1-4)Glc(a1-4)Glc(a1-4)Glc(a1-4)Glc(a1-4)Glc(a1-4)Glc(a1-4)Glc(a1-4)Glc(a1-4)Glc
Summary of the method: (§1)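 The binding signal is a Z-score computed within each array and averaged over linkers. Arrays of the same protein sequence at different concentrations or buffers were also averaged together. Data originate from 3228 arrays in the Consortium for Functional Glycomics database, kept only where the protein sequence was available.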

[2] = target: Glc(a1-4)Glc(a1-4)Glc(a1-4)Glc(a1-4)Glc(a1-4)Glc(a1-4)Glc(a1-4)Glc(a1-4)Glc(a1-4)Glc(a1-4)Glc(a1-4)Glc
Summary of the method: as §1

[3] = target: Glc(a1-4)Glc(a1-4)Glc(a1-4)Glc(a1-4)Glc(a1-4)Glc(a1-4)Glc(a1-4)Glc(a1-4)Glc(a1-4)Glc(a1-4)Glc(a1-4)Glc(a1-4)Glc
Summary of the method: as §1

Glc(a1-4)Glc(a1-6)Glc = target: Glc(a1-4)Glc(a1-6)Glc
Summary of the method: as §1

Glc(a1-6)Glc = target: Glc(a1-6)Glc
Summary of the method: as §1

Glc(a1-6)Glc(a1-4)Glc = target: Glc(a1-6)Glc(a1-4)Glc
Summary of the method: as §1

[4] = target: Glc(a1-6)Glc(a1-4)Glc(a1-4)Glc
Summary of the method: as §1

[5] = target: Glc(a1-6)Glc(a1-4)Glc(a1-4)Glc(a1-6)Glc(a1-4)Glc(a1-4)Glc
Summary of the method: as §1

Glc(a1-6)Glc(a1-6)Glc = target: Glc(a1-6)Glc(a1-6)Glc
Summary of the method: as §1

[6] = target: Glc(a1-6)Glc(a1-6)Glc(a1-6)Glc
Summary of the method: as §1

[7] = target: Glc(a1-6)Glc(a1-6)Glc(a1-6)Glc(a1-6)Glc
Summary of the method: as §1

[8] = target: Glc(a1-6)Glc(a1-6)Glc(a1-6)Glc(a1-6)Glc(a1-6)Glc
Summary of the method: as §1

[9] = target: Glc(a1-6)Glc(a1-6)Glc(a1-6)Glc(a1-6)Glc(a1-6)Glc(a1-6)Glc
Summary of the method: as §1

[10] = target: Glc(a1-6)Glc(a1-6)Glc(a1-6)Glc(a1-6)Glc(a1-6)Glc(a1-6)Glc(a1-6)Glc
Summary of the method: as §1

[11] = target: Glc(a1-6)Glc(a1-6)Glc(a1-6)Glc(a1-6)Glc(a1-6)Glc(a1-6)Glc(a1-6)Glc(a1-6)Glc
Summary of the method: as §1

[12] = target: Glc(a1-6)Glc(a1-6)Glc(a1-6)Glc(a1-6)Glc(a1-6)Glc(a1-6)Glc(a1-6)Glc(a1-6)Glc(a1-6)Glc
Summary of the method: as §1

[13] = target: Glc(a1-6)Glc(a1-6)Glc(a1-6)Glc(a1-6)Glc(a1-6)Glc(a1-6)Glc(a1-6)Glc(a1-6)Glc(a1-6)Glc(a1-6)Glc
Summary of the method: as §1

[14] = target: Glc(a1-6)Glc(a1-6)Glc(a1-6)Glc(a1-6)Glc(a1-6)Glc(a1-6)Glc(a1-6)Glc(a1-6)Glc(a1-6)Glc(a1-6)Glc(a1-6)Glc
Summary of the method: as §1

[15] = target: Glc(a1-6)Glc(a1-6)Glc(a1-6)Glc(a1-6)Glc(a1-6)Glc(a1-6)Glc(a1-6)Glc(a1-6)Glc(a1-6)Glc(a1-6)Glc(a1-6)Glc(a1-6)Glc
Summary of the method: as §1

Glc(b1-2)Glc = target: Glc(b1-2)Glc
Summary of the method: as §1

Glc(b1-2)Glc(b1-2)Glc = target: Glc(b1-2)Glc(b1-2)Glc
Summary of the method: as §1

[16] = target: Glc(b1-2)Glc(b1-2)Glc(b1-2)Glc
Summary of the method: as §1

[17] = target: Glc(b1-2)Glc(b1-2)Glc(b1-2)Glc(b1-2)Glc
Summary of the method: as §1

[18] = target: Glc(b1-2)Glc(b1-2)Glc(b1-2)Glc(b1-2)Glc(b1-2)Glc
Summary of the method: as §1

[19] = target: Glc(b1-2)Glc(b1-2)Glc(b1-2)Glc(b1-2)Glc(b1-2)Glc(b1-2)Glc
Summary of the method: as §1

[20] = target: Glc(b1-2)Glc(b1-2)Glc(b1-2)Glc(b1-2)Glc(b1-2)Glc(b1-2)Glc(b1-2)Glc
Summary of the method: as §1

[21] = target: Glc(b1-2)Glc(b1-2)Glc(b1-2)Glc(b1-2)Glc(b1-2)Glc(b1-2)Glc(b1-2)Glc(b1-2)Glc
Summary of the method: as §1

[22] = target: Glc(b1-2)Glc(b1-2)Glc(b1-2)Glc(b1-2)Glc(b1-2)Glc(b1-2)Glc(b1-2)Glc(b1-2)Glc(b1-2)Glc
Summary of the method: as §1

[23] = target: Glc(b1-2)Glc(b1-2)Glc(b1-2)Glc(b1-2)Glc(b1-2)Glc(b1-2)Glc(b1-2)Glc(b1-2)Glc(b1-2)Glc(b1-2)Glc
Summary of the method: as §1

Measured: glycan array binding signal (z-score)

B1: Lam16A (Thermotoga maritima), Q9WXN1 (protein)
chain: EQINNGTFDEPIVNDQANNPDEWFIWQAGDYGISGARVSDYGVRDGYAYITIADPGTDTWHIQFNQWIGLYRGKTYTISFKAKADTPRPINVKILQNHDPWTNYFAQTVNLTADWQTFTFTYTHPDDADEVVQISFELGEGTATTIYFDDVTVSPQ
-0.368: [12]
-0.364: [2]
-0.373: Glc(a1-4)Glc(a1-6)Glc | Glc(a1-6)Glc | Glc(a1-6)Glc(a1-4)Glc | [4] | [5] | Glc(a1-6)Glc(a1-6)Glc | [6] | [7] | [8] | [9] | [10] | [11] | [14] | [15] | Glc(b1-2)Glc | Glc(b1-2)Glc(b1-2)Glc | [16] | [17] | [18] | [19] | [20] | [21] | [22] | [23]
-0.366: [1]
-0.255: [13]
-0.37: [3]
